# Measured values published in PubChem BioAssay (EPA / NIEHS).
# Several values for one entry are separate records, joined by “and”; a condition that tells them apart may be missing. Identical values can stand only once. Inconclusive results, whose numbers are uncertain, are shown with a selection of clear calls. A potency beside an inconclusive call is a rough fit, not a confirmed value. Activity calls are given as the source filed them. How the source made its calls: active means hit-call score of the fitted dose curve at least 0.9, where 1 is the maximum; inconclusive means response in the unintended direction; inactive means score below 0.9.
# Target: Estrogen receptor beta (Homo sapiens) (UniProt Q92731)
# Assay: ATG_hERb_XSP2: Attagene TRANS-FACTORIAL Multi-Species (XSP2) HepG2 Assay for human Estrogen Receptor (ERb) (AID 2283813);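 further: actives raise reporter mRNA above DMSO so AC50 reflects agonist induction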
# Experimental: ATG_XSP2_multi-species_TRANS is a cell-based, multiplexed assay created by modifying the existing Attagene TRANS-FACTORIAL system to include a panel of nuclear receptors from some or all the following species: human (Homo sapiens), mouse (Mus musculus), frog (Xenopus laevis), zebrafish (Danio rerio), chicken (Gallus gallus), and turtle (Chrysemys picta). The ECOTOX-FACTORIAL format uses HepG2, a human liver cell line, with measurements taken at 24 hours after chemical dosing in a 24-well plate. Xsp2 included 3 nM 6-alpha-fluorotestosterone and 1.5 nM norgestrel to stimulate the androgen receptor.ATG_hERb_XSP2 is one of 29 assay components measured or calculated from the ATG_XSP2_multi-species_TRANS assay. It is designed to make measurements of mRNA induction, a form of inducible reporter, as detected with fluorescence intensity signals by Reverse transcription polymerase chain reaction (RT-PCR) and Capillary electrophoresis technology.The assay endpoint ATG_hERb_XSP2 was analyzed in the positive analysis fitting direction relative to DMSO as the negative control and baseline of activity. Using a type of inducible reporter, measures of mRNA for gain-of-signal activity can be used to understand the reporter gene at the transcription factor-level as they relate to the gene ER. Furthermore, this assay endpoint can be referred to as a primary readout, because this assay has produced multiple assay endpoints where this one serves a reporter gene function. To generalize the intended target to other relatable targets, this assay endpoint is annotated to the nuclear receptor intended target family, where the subfamily is steroidal.
# Human liver HepG2 cells are transiently transfected with multiple reporter transcription units (MRTUs) in 6-well plates using FuGene 6 reagent (Roche; 3 ml FuGene/1 mg DNA). The MRTU constructs are regulated by a cis-regulating element (promoter). […] A major difference between the CIS and TRANS system is that in CIS activities of endogenous TFs are measured, whereas the TRANS assay evaluates changes in activities of exogenous, chimeric NR-Gal4 proteins. […] At the end of 24 hour incubation, total RNA was isolated using TriZol reagent (Invitrogen). The isolated RNA is then reverse-transcribed using oligo(dT) primer and Mo-MLV reverse transcriptase (Invitrogen) with DNAse I (Ambion) treatment for 30 min. The one-tenth of the produced cDNA was amplified by PCR using Taq DNA polymerase (Invitrogen) and two reporter sequence-specific primers. The PCR products were fluorescently labeled by primer extension with 6-arboxyfluorescein (6-FAM) 5'-labeled reporter sequence-specific primer (2 min at 95 C, 20 s at 68 C and 10 min at 72 C) and these products were digested with 5U of HpaI (New England Biolabs) for 2h at 37 C. The fragments were purified using Qiaquick PCR columns (Qiagen), analyzed on an ABI 3130xL genetic analyzer (Applied Biosystems) with peak positions identified by using a set of X-rhodamine (ROX)-labeled MapMarker1000 molecular weight standards (BioVentures). The raw capillary electrophoresis data was processed using Attagraph software (Attagene).
# UniProt Q92731, sequence (Q92731 whole entry, looked up): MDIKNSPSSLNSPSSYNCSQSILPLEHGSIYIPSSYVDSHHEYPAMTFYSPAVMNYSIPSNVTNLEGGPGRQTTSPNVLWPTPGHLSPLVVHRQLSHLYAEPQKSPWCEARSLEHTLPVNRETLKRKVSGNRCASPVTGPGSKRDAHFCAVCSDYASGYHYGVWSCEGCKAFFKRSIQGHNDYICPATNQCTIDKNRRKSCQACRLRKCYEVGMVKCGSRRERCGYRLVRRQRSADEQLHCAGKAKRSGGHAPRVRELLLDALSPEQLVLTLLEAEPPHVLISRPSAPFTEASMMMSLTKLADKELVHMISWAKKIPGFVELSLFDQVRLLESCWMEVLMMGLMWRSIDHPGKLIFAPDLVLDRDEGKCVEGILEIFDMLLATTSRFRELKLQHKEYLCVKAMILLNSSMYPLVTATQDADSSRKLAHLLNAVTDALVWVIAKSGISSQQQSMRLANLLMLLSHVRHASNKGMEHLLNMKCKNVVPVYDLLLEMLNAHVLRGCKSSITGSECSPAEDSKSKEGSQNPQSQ
row,Compound,AC50
1,O=C(O)Cc1cc(I)c(Oc2cc(I)c(O)c(I)c2)c(I)c1,inconclusive: 650 nM and inconclusive: 1 µM
2,Cc1c2ccccc2c(C)c2c1ccc1ccccc12,active: 24.7 µM
3,CCCCCC(=O)O[C@]1(C(C)=O)CC[C@H]2[C@@H]3CCC4=CC(=O)CC[C@]4(C)[C@H]3CC[C@@]21C,inconclusive: 1.79 µM and inconclusive: 1.51 µM
4,CC(CCC(=O)O)(c1ccc(O)cc1)c1ccc(O)cc1,inconclusive: 100 µM
5,C=C1C[C@H]2[C@@H]3C=C(C)C4=CC(=O)CC[C@]4(C)[C@H]3CC[C@]2(C)[C@@]1(OC(C)=O)C(C)=O,inconclusive: 65 µM and inconclusive: 30.6 µM
6,CCCOC(=O)c1ccc(O)cc1,active: 31.9 µM and active: 2.52 µM
7,O=C(c1ccc(O)cc1O)c1ccc(O)cc1O,active: 1.32 µM
8,CCN(CC)CCOc1ccc(C(=C(Cl)c2ccccc2)c2ccccc2)cc1,inconclusive: 9.14 nM and inconclusive: 107 nM
9,O=C(OCCOCCOCCOC(=O)c1ccccc1)c1ccccc1,inconclusive: 26.3 µM and inconclusive: 82.3 nM
10,Oc1cc2ccccc2c2ccccc12,inconclusive: 33.4 µM
